Experimental data as given in the supplement of paper PMC2702839.
Structures can show the parent of a compound that is named as a salt. The list shows a part of the results.

These compounds were tested on Schistosoma mansoni schistosomula (assay: phenotypic hit in primary schistosomula screen (any phenotype vs DMSO control) (binary (1 = hit, 0 = no phenotype)); higher = active (phenotype induced)). Settings: 1 µM; time (d): 7.
With `CC(=O)Oc1ccc(O)cc1` [4-acetoxyphenol] the phenotypic hit was inactive: 0.
With `CC(=O)OCC[N+](C)(C)C` [acetylcholine] the phenotypic hit was inactive: 0.
`O=C(O)c1nc2cc(Cl)c(Cl)cc2nc1O` [6,7-dichloro-3-hydroxy-2-quinoxalinecarboxylic acid] was tested, and the phenotypic hit was inactive: 0.
`CC(=O)O[C@H]1C[C@@H](OC(C)=O)C(C)(C)C2CC(=O)[C@]3(C)C(CC[C@@]4(C)[C@H](c5ccoc5)OC(=O)[C@H]5O[C@]543)[C@]21C` (stereo partly specified) [7-deacetoxy-7-oxokhivorin] was tested, and the phenotypic hit was inactive: 0.
`CC(=O)O[C@@H]1CC2C(C)(C)C(=O)CC[C@]2(C)C2CC[C@]3(C)C(=CC(=O)O[C@H]3c3ccoc3)[C@@]21C` (stereo partly specified) [dihydrodeoxygedunin] was tested, and the phenotypic hit was inactive: 0.
`OCCN1C[C@H](O)[C@@H](O)[C@H](O)[C@H]1CO` [miglitol] was tested, and the phenotypic hit was inactive: 0.
For `CC(C)C(=O)Nc1ccc([N+](=O)[O-])c(C(F)(F)F)c1` [flutamide], the phenotypic hit was inactive: 0.
For `Cn1cnc([N+](=O)[O-])c1Sc1ncnc2[nH]cnc12` [Azathioprine], the phenotypic hit was inactive: 0.
`COc1cc(C)c2c(=O)c3c(O)cc(O)cc3oc2c1` [methylnorlichexanthone] was tested, and the phenotypic hit was inactive: 0.
For `Cc1coc2ccccc2c1=O` [methylchromone], the phenotypic hit was inactive: 0.
For `O=C(O)CCCC[C@@H]1SC[C@@H]2NC(=O)N[C@@H]21` [biotin], the phenotypic hit was inactive: 0.
`CC1COc2c(N3CCN(C)CC3)c(F)cc3c(=O)c(C(=O)O)cn1c23` (stereo unspecified) [ofloxacin] was tested, and the phenotypic hit was inactive: 0.
In the case of `C[C@H](CCC(=O)O)[C@H]1CC[C@H]2[C@@H]3CC[C@@H]4C[C@H](O)CC[C@]4(C)[C@H]3CC[C@]12C` [lithocholic acid], the phenotypic hit is reported as inactive: 0.
In the case of `COC(=O)C1=C(C)NC(C)=C(C(=O)OC(C)C)C1c1cccc2nonc12` (stereo unspecified) [isradipine], the phenotypic hit is reported as inactive: 0.
`C[N+](C)(C)CCO.[Cl-]` [choline chloride] was tested, and the phenotypic hit was inactive: 0.
In the case of `CN1CCC(OC(c2ccccc2)c2ccccc2)CC1` [diphenylpyraline hydrochloride], the phenotypic hit is reported as inactive: 0.
For `COc1cccc(-c2cc(=O)c3ccc(OC)cc3o2)c1` [7,3'-dimethoxyflavone], the phenotypic hit was inactive: 0.
In the case of `COc1ccc(/C=C/C(=O)O)cc1O` [isoferulic acid], the phenotypic hit is reported as inactive: 0.
For `Cc1cc(O)c2c(c1)C(=O)c1cc(O)cc(O)c1C2=O` [emodin], the phenotypic hit was inactive: 0.
`Fc1ccc([C@@H]2CCNC[C@H]2COc2ccc3c(c2)OCO3)cc1` [paroxetine hydrochloride] was tested, and the phenotypic hit was inactive: 0.
For `CN(C)CCCN1c2ccccc2CCc2ccccc21` [Imipramine hydrochloride], the phenotypic hit was active: 1.
`C[C@H]1COc2c(N3CCN(C)CC3)c(F)cc3c(=O)c(C(=O)O)cn1c23` [levofloxacin] was tested, and the phenotypic hit was inactive: 0.
With `C=C1CCC2C(CC2(C)C)C(=O)CCC1O` (stereo unspecified) [isokobusone] the phenotypic hit was inactive: 0.
For `NC(CO)C(=O)NNCc1ccc(O)c(O)c1O` (stereo unspecified) [Benserazide hydrochloride], the phenotypic hit was inactive: 0.
For `COc1ccc2c(c1)OC[C@@H](Cc1ccc(OC)c(OC)c1)[C@H]2O` [tetrahydrosappanone a trimethyl ether], the phenotypic hit was inactive: 0.
For `NCC[C@H](O)C(=O)N[C@@H]1C[C@H](N)[C@@H](O[C@H]2O[C@H](CN)[C@@H](O)[C@H](O)[C@H]2O)[C@H](O)[C@H]1O[C@H]1O[C@H](CO)[C@@H](O)[C@H](N)[C@H]1O` [amikacin sulfate], the phenotypic hit was inactive: 0.
For `CC(=O)O[C@@](C)(CCC=C(C)C)C1CC=C(C)CC1` (stereo partly specified) [bisabolol acetate], the phenotypic hit was inactive: 0.
With `CC(C)=CCOc1cc2oc(=O)ccc2cc1O` [prenyletin] the phenotypic hit was inactive: 0.
`COc1ccc(C(=O)CC(=O)O)c2c1C=CC(C)(C)O2` [ursinic acid] was tested, and the phenotypic hit was inactive: 0.
In the case of `COC(=O)C[C@H]1C(C)(C)C(=O)[C@@H]2CC3=C4CC(=O)O[C@@H](c5ccoc5)[C@]4(C)CC[C@@H]3[C@@]1(C)C2=O` [mexicanolide], the phenotypic hit is reported as inactive: 0.
For `CC(C)=CCC[C@](C)(O)C1CC=C(C)CC1` (stereo partly specified) [bisabolol], the phenotypic hit was inactive: 0.
In the case of `CCOC(=O)C(=O)C1(C(=O)OCC)Oc2cc(OC)cc(OC)c2C(=O)C1c1ccccc1` (stereo unspecified), the phenotypic hit is reported as inactive: 0.
In the case of `CCCCCCc1ccc(O)cc1O` [hexylresorcinol], the phenotypic hit is reported as inactive: 0.
With `CC1(C)NC(=O)N(c2ccc([N+](=O)[O-])c(C(F)(F)F)c2)C1=O` [nilutamide] the phenotypic hit was inactive: 0.
`COC(=O)[C@@H]1[C@H]2C[C@H]3c4[nH]c5ccccc5c4CCN3C[C@@H]2CC[C@@H]1O` [Yohimbine hydrochloride] was tested, and the phenotypic hit was inactive: 0.
In the case of `C=C(C)[C@@H]1CC=C(C(=O)O)CC1` [perillic acid (-)], the phenotypic hit is reported as inactive: 0.
In the case of `CCCCOc1cc(C(=O)NCCN(CC)CC)c2ccccc2n1` [dibucaine hydrochloride], the phenotypic hit is reported as inactive: 0.
`COc1cc(OC)c2c(c1)OC(c1ccccc1)CC2=O` (stereo unspecified) [alpinetin methyl ether] was tested, and the phenotypic hit was inactive: 0.
`CCS(=O)(=O)CCn1c([N+](=O)[O-])cnc1C` [tinidazole] was tested, and the phenotypic hit was active: 1.
`Sc1nc2ccccc2s1` [2-mercaptobenzothiazole] was tested, and the phenotypic hit was inactive: 0.
With `COc1ccc2cc1Oc1ccc(cc1)C[C@H]1c3cc(c(OC)cc3CCN1C)Oc1c(OC)c(OC)cc3c1[C@H](C2)N(C)CC3` [tetrandrine] the phenotypic hit was active: 1.
`C=C1C2CCC3(C)C(c4ccoc4)OC(=O)CC13OC1CC(OC(C)=O)C(C)(C)C(CC(=O)OC)C12C` (stereo not drawn) [3beta-acetoxydeoxyangolensic acid, methyl ester] was tested, and the phenotypic hit was inactive: 0.
For `COc1ccc(C(=O)/C=C/c2ccccc2)cc1` [4'-methoxychalcone], the phenotypic hit was active: 1.
`CNCCC(Oc1ccc(C(F)(F)F)cc1)c1ccccc1` (stereo unspecified) [Fluoxetine hydrochloride] was tested, and the phenotypic hit was active: 1.
`CC1CCC(C(C)C)C(O)C1` (single isomer, unassigned; (-)) [(-)-menthol] was tested, and the phenotypic hit was inactive: 0.
`CC(C)(OC(=O)c1ccccc1)[C@@H]1Cc2cc3ccc(=O)oc3cc2O1` [felamidin] was tested, and the phenotypic hit was inactive: 0.
In the case of `C=C1C(=O)O[C@@H]2C[C@@]3(C)CCC[C@H](C)C3=C[C@H]12` [helenine], the phenotypic hit is reported as inactive: 0.
For `O=C(O)c1cc(-c2ccc(F)cc2F)ccc1O` [diflunisal], the phenotypic hit was inactive: 0.
In the case of `CCCCNC(=O)NS(=O)(=O)c1ccc(C)cc1` [Tolbutamide], the phenotypic hit is reported as inactive: 0.
In the case of `O[C@H]1[C@H]2c3cc4c(cc3CN3CCC(=C[C@@H]1O)[C@H]23)OCO4` [lycorine], the phenotypic hit is reported as active: 1.
`COc1ccc2c(c1)OC1(c3ccccc3OC)CC1C2=O` (stereo unspecified) [2,3-methano-7,2'-dimethoxyflavanone] was tested, and the phenotypic hit was inactive: 0.
For `CC(=O)[C@H]1CC[C@H]2[C@@H]3C[C@H](C)C4=CC(=O)CC[C@]4(C)[C@H]3[C@@H](O)C[C@]12C` [medrysone], the phenotypic hit was inactive: 0.
`CCn1cc(C(=O)O)c(=O)c2cnc(N3CCCC3)nc21` [piromidic acid] was tested, and the phenotypic hit was inactive: 0.
With `O=S(=O)(O)CCS` [mesna] the phenotypic hit was inactive: 0.
`CCCCCCCCCCCCC[N+](C)(C)Cc1ccccc1` [benzalkonium chloride] was tested, and the phenotypic hit was active: 1.
For `COC(=O)C[C@H]1C(C)(C)[C@@H](O)[C@@H]2CC3=C4CC(O)O[C@@H](c5ccoc5)[C@]4(C)CCC3[C@@]1(C)C2=O` (stereo partly drawn) [3,16-dideoxymexicanolide-3beta-diol], the phenotypic hit was inactive: 0.
For `COc1ccc(-c2cc(=O)c3c(O)cc(O[C@@H]4O[C@H](CO[C@@H]5O[C@@H](C)[C@H](O)[C@@H](O)[C@H]5O)[C@@H](O)[C@H](O)[C@H]4O)cc3o2)cc1O` [diosmin], the phenotypic hit was inactive: 0.
In the case of `COC(=O)c1c(OC)cc2c(c1C)Oc1c(Cl)c(OC(C)=O)c(Cl)c(C)c1C(=O)O2` [gangleoidin acetate], the phenotypic hit is reported as inactive: 0.
`COc1cc(O)cc(/C=C/c2ccccc2)c1` [pinosylvin methyl ether] was tested, and the phenotypic hit was inactive: 0.
`C=C1C[C@]23C[C@@]1(O)CC[C@H]2[C@@]12C=C[C@H](O)[C@@](C)(C(=O)O1)[C@H]2[C@@H]3C(=O)O` [gibberellic acid] was tested, and the phenotypic hit was inactive: 0.
With `CN1[C@@H](CC(=O)c2ccccc2)CCC[C@H]1C[C@H](O)c1ccccc1` [lobeline hydrochloride] the phenotypic hit was inactive: 0.
For `c1ccc2[nH]c(-c3cscn3)nc2c1` [thiabendazole], the phenotypic hit was inactive: 0.
For `COc1cc(C)c(C(=O)Oc2cc(C)c(C(=O)O)c(O)c2C)c(O)c1C=O` [baeomycesic acid], the phenotypic hit was inactive: 0.
`NC(=O)NC(=O)Cc1ccccc1` [phenacemide] was tested, and the phenotypic hit was inactive: 0.
In the case of `CC(=O)Oc1cc2c(c(C)c1OC(C)=O)CC1OC13[C@@]2(C)CC[C@@]1(C)C2C[C@](C)(C(=O)O)CC[C@]2(C)CC[C@]31C` (stereo partly specified), the phenotypic hit is reported as inactive: 0.
For `C[C@]12CC[C@@H]3c4ccc(O)cc4CC[C@H]3[C@@H]1CCC2=O` [estrone], the phenotypic hit was inactive: 0.
In the case of `Cc1cc(=O)c2c(O)c(C)c(O)cc2o1` [eugenitol], the phenotypic hit is reported as inactive: 0.
With `CC(=O)OCC1=C(C(=O)O)N2C(=O)[C@@H](NC(=O)CSc3ccncc3)[C@H]2SC1` [cephapirin sodium] the phenotypic hit was inactive: 0.
For `CN(C)[C@@H]1C(O)=C(C(N)=O)C(=O)[C@@]2(O)C(O)=C3C(=O)c4c(O)ccc(Cl)c4[C@@](C)(O)[C@H]3C[C@@H]12` [chlortetracycline], the phenotypic hit was inactive: 0.
With `Cc1cccc(CN2CCN(C(c3ccccc3)c3ccc(Cl)cc3)CC2)c1` (stereo unspecified) [meclizine hydrochloride] the phenotypic hit was inactive: 0.
In the case of `O=C(O)CCC(=O)Nc1ccc(S(=O)(=O)Nc2nccs2)cc1` [succinylsulfathiazole], the phenotypic hit is reported as inactive: 0.
